{"source": "the supplement of paper PMC8728848", "binders": {"B1": {"name": "SLP (Clostridium difficile), Q183M8 (protein)", "chain": "MATTGTQGYTVVKNDWKKAVKQLQDGLKDNSIGKITVSFNDGVVGEVAPKSANKKADRDAAAEKLYNLVNTQLDKLGDGDYVDFSVDYNLENKIITNQADAEAIVTKLNSLNEKTLIDIATKDTFGMVSKTQDSEGKNVAATKALKVKDVATFGLKSGGSEDTGYVVEMKAGAVEDKYGKVGDSTAGIAINLPSTGLEYAGKGTTIDFNKTLKVDVTGGSTPSAVAVSGFVTKDDTDLAKSGTINVRVINAKEESIDIDASSYTSAENLAKRYVFDPDEISEAYKAIVALQNDGIESNLVQLVNGKYQVIFYPEGKRLETKSLEHHHHHH"}}, "experiment_in_all_cases": "glycan array binding signal (z-score within array); higher = stronger binding", "conditions_in_all_cases": "glycan notation: IUPAC condensed, linker removed", "key": {"[1]": {"molecular_target": "Gal(b1-3)[Fuc(a1-4)]GlcNAc", "method_in_brief": "(§1)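 Negative Z-scores can be read as non-binding. The Z-score is calculated within each array and then averaged across arrays of one protein sequence at different concentrations or buffers and across linkers. Arrays, 3228 in all, were curated from the Consortium for Functional Glycomics database and kept only where the protein sequence was available.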"}, "[2]": {"molecular_target": "Gal(b1-3)[Fuc(a1-4)]GlcNAc(b1-2)Man(a1-3)[Gal(b1-3)[Fuc(a1-4)]GlcNAc(b1-2)Man(a1-6)]Man(b1-4)GlcNAc(b1-4)GlcNAc", "method_in_brief": "as §1"}, "[3]": {"molecular_target": "Gal(b1-3)[Fuc(a1-4)]GlcNAc(b1-2)Man(a1-3)[Gal(b1-3)[Fuc(a1-4)]GlcNAc(b1-2)Man(a1-6)]Man(b1-4)GlcNAc(b1-4)[Fuc(a1-6)]GlcNAc", "method_in_brief": "as §1"}, "[4]": {"molecular_target": "Gal(b1-3)[Fuc(a1-4)]GlcNAc(b1-3)Gal(b1-3)[Fuc(a1-4)]GlcNAc", "method_in_brief": "as §1"}, "[5]": {"molecular_target": "Gal(b1-3)[Fuc(a1-4)]GlcNAc(b1-3)Gal(b1-4)GlcNAc", "method_in_brief": "as §1"}, "[6]": {"molecular_target": "Gal(b1-3)[Fuc(a1-4)]GlcNAc(b1-3)Gal(b1-4)[Fuc(a1-3)]GlcNAc", "method_in_brief": "as §1"}, "[7]": {"molecular_target": "Gal(b1-3)[GlcNAc(b1-6)]GalNAc", "method_in_brief": "as §1"}, "[8]": {"molecular_target": "Gal(b1-3)[Neu5Ac(a2-6)]GalNAc", "method_in_brief": "as §1"}, "[9]": {"molecular_target": "Gal(b1-3)[Neu5Ac(a2-6)]GlcNAc(b1-6)Gal(b1-4)Glc", "method_in_brief": "as §1"}, "[10]": {"molecular_target": "Gal(b1-3)[Neu5Ac(b2-6)]GalNAc", "method_in_brief": "as §1"}, "[11]": {"molecular_target": "Gal(b1-4)GalNAc(a1-3)[Fuc(a1-2)]Gal(b1-4)GlcNAc", "method_in_brief": "as §1"}, "[12]": {"molecular_target": "Gal(b1-4)GalNAc(b1-3)[Fuc(a1-2)]Gal(b1-4)GlcNAc", "method_in_brief": "as §1"}, "Gal(b1-4)Glc": {"molecular_target": "Gal(b1-4)Glc", "method_in_brief": "as §1"}, "Gal(b1-4)Glc6S": {"molecular_target": "Gal(b1-4)Glc6S", "method_in_brief": "as §1"}, "Gal(b1-4)GlcNAc": {"molecular_target": "Gal(b1-4)GlcNAc", "method_in_brief": "as §1"}, "[13]": {"molecular_target": "Gal(b1-4)GlcNAc(a1-6)Gal(b1-4)GlcNAc", "method_in_brief": "as §1"}, "[14]": {"molecular_target": "Gal(b1-4)GlcNAc(b1-2)Man(a1-3)Man(b1-4)GlcNAc(b1-4)GlcNAc", "method_in_brief": "as §1"}, "[15]": {"molecular_target": "Gal(b1-4)GlcNAc(b1-2)Man(a1-3)[Gal(b1-4)GlcNAc(b1-2)Man(a1-6)]Man(b1-4)GlcNAc(b1-4)GlcNAc", "method_in_brief": "as §1"}, "[16]": {"molecular_target": "Gal(b1-4)GlcNAc(b1-2)Man(a1-3)[Gal(b1-4)GlcNAc(b1-2)Man(a1-6)]Man(b1-4)GlcNAc(b1-4)[Fuc(a1-6)]GlcNAc", "method_in_brief": "as §1"}, "[17]": {"molecular_target": "Gal(b1-4)GlcNAc(b1-2)Man(a1-3)[GlcNAc(b1-2)Man(a1-6)]Man(b1-4)GlcNAc(b1-4)GlcNAc", "method_in_brief": "as §1"}, "[18]": {"molecular_target": "Gal(b1-4)GlcNAc(b1-2)Man(a1-3)[Man(a1-6)]Man(b1-4)GlcNAc(b1-4)GlcNAc", "method_in_brief": "as §1"}, "[19]": {"molecular_target": "Gal(b1-4)GlcNAc(b1-2)Man(a1-6)Man(b1-4)GlcNAc(b1-4)GlcNAc", "method_in_brief": "as §1"}, "[20]": {"molecular_target": "Gal(b1-4)GlcNAc(b1-2)Man(a1-6)[GlcNAc(b1-2)Man(a1-3)]Man(b1-4)GlcNAc(b1-4)GlcNAc", "method_in_brief": "as §1"}, "[21]": {"molecular_target": "Gal(b1-4)GlcNAc(b1-2)Man(a1-6)[Man(a1-3)]Man(b1-4)GlcNAc(b1-4)GlcNAc", "method_in_brief": "as §1"}, "[22]": {"molecular_target": "Gal(b1-4)GlcNAc(b1-2)[Gal(b1-4)GlcNAc(b1-4)]Man(a1-3)[Gal(b1-4)GlcNAc(b1-2)Man(a1-6)]Man(b1-4)GlcNAc(b1-4)GlcNAc", "method_in_brief": "as §1"}, "[23]": {"molecular_target": "Gal(b1-4)GlcNAc(b1-2)[Gal(b1-4)GlcNAc(b1-4)]Man(a1-3)[Gal(b1-4)GlcNAc(b1-2)[Gal(b1-4)GlcNAc(b1-6)]Man(a1-6)]Man(b1-4)GlcNAc(b1-4)GlcNAc", "method_in_brief": "as §1"}, "[24]": {"molecular_target": "Gal(b1-4)GlcNAc(b1-3)Gal(b1-3)GlcNAc", "method_in_brief": "as §1"}, "[25]": {"molecular_target": "Gal(b1-4)GlcNAc(b1-3)Gal(b1-4)Glc", "method_in_brief": "as §1"}, "[26]": {"molecular_target": "Gal(b1-4)GlcNAc(b1-3)Gal(b1-4)GlcNAc", "method_in_brief": "as §1"}, "[27]": {"molecular_target": "Gal(b1-4)GlcNAc(b1-3)Gal(b1-4)GlcNAc(b1-3)Gal(b1-4)GlcNAc", "method_in_brief": "as §1"}, "[28]": {"molecular_target": "Gal(b1-4)GlcNAc(b1-3)Gal(b1-4)[Fuc(a1-3)]GlcNAc(b1-3)Gal(b1-4)[Fuc(a1-3)]GlcNAc", "method_in_brief": "as §1"}, "[29]": {"molecular_target": "Gal(b1-4)GlcNAc(b1-3)GalNAc", "method_in_brief": "as §1"}, "[30]": {"molecular_target": "Gal(b1-4)GlcNAc(b1-3)[Gal(b1-4)GlcNAc(b1-6)]Gal(b1-4)GlcNAc", "method_in_brief": "as §1"}, "[31]": {"molecular_target": "Gal(b1-4)GlcNAc(b1-3)[Gal(b1-4)GlcNAc(b1-6)]GalNAc", "method_in_brief": "as §1"}, "[32]": {"molecular_target": "Gal(b1-4)GlcNAc(b1-3)[GlcNAc(b1-6)]Gal(b1-4)GlcNAc", "method_in_brief": "as §1"}, "[33]": {"molecular_target": "Gal(b1-4)GlcNAc(b1-6)Gal(b1-4)GlcNAc", "method_in_brief": "as §1"}, "[34]": {"molecular_target": "Gal(b1-4)GlcNAc(b1-6)GalNAc", "method_in_brief": "as §1"}}, "note": "The other results are listed elsewhere or left out.", "data": [{"binder": "B1", "values": [{"measurement": "glycan array binding signal (z-score)", "setting": "[1]", "result": -0.182}, {"measurement": "glycan array binding signal (z-score)", "setting": "[2]", "result": 7.99}, {"measurement": "glycan array binding signal (z-score)", "setting": "[3]", "result": 5.55}, {"measurement": "glycan array binding signal (z-score)", "setting": "[4]", "result": -0.138}, {"measurement": "glycan array binding signal (z-score)", "setting": "[5]", "result": -0.182}, {"measurement": "glycan array binding signal (z-score)", "setting": "[6]", "result": -0.174}, {"measurement": "glycan array binding signal (z-score)", "setting": "[7]", "result": 0.097}, {"measurement": "glycan array binding signal (z-score)", "setting": "[8]", "result": -0.129}, {"measurement": "glycan array binding signal (z-score)", "setting": "[9]", "result": 1.18}, {"measurement": "glycan array binding signal (z-score)", "setting": "[10]", "result": -0.129}, {"measurement": "glycan array binding signal (z-score)", "setting": "[11]", "result": -0.166}, {"measurement": "glycan array binding signal (z-score)", "setting": "[12]", "result": -0.158}, {"measurement": "glycan array binding signal (z-score)", "setting": "Gal(b1-4)Glc", "result": -0.156}, {"measurement": "glycan array binding signal (z-score)", "setting": "Gal(b1-4)Glc6S", "result": -0.116}, {"measurement": "glycan array binding signal (z-score)", "setting": "Gal(b1-4)GlcNAc", "result": -0.203}, {"measurement": "glycan array binding signal (z-score)", "setting": "[13]", "result": -0.14}, {"measurement": "glycan array binding signal (z-score)", "setting": "[14]", "result": -0.163}, {"measurement": "glycan array binding signal (z-score)", "setting": "[15]", "result": -0.173}, {"measurement": "glycan array binding signal (z-score)", "setting": "[16]", "result": -0.144}, {"measurement": "glycan array binding signal (z-score)", "setting": "[17]", "result": -0.087}, {"measurement": "glycan array binding signal (z-score)", "setting": "[18]", "result": -0.159}, {"measurement": "glycan array binding signal (z-score)", "setting": "[19]", "result": -0.174}, {"measurement": "glycan array binding signal (z-score)", "setting": "[20]", "result": -0.176}, {"measurement": "glycan array binding signal (z-score)", "setting": "[21]", "result": -0.196}, {"measurement": "glycan array binding signal (z-score)", "setting": "[22]", "result": -0.145}, {"measurement": "glycan array binding signal (z-score)", "setting": "[23]", "result": -0.173}, {"measurement": "glycan array binding signal (z-score)", "setting": "[24]", "result": -0.091}, {"measurement": "glycan array binding signal (z-score)", "setting": "[25]", "result": 2.4}, {"measurement": "glycan array binding signal (z-score)", "setting": "[26]", "result": -0.205}, {"measurement": "glycan array binding signal (z-score)", "setting": "[27]", "result": -0.192}, {"measurement": "glycan array binding signal (z-score)", "setting": "[28]", "result": -0.185}, {"measurement": "glycan array binding signal (z-score)", "setting": "[29]", "result": -0.188}, {"measurement": "glycan array binding signal (z-score)", "setting": "[30]", "result": -0.203}, {"measurement": "glycan array binding signal (z-score)", "setting": "[31]", "result": -0.146}, {"measurement": "glycan array binding signal (z-score)", "setting": "[32]", "result": -0.209}, {"measurement": "glycan array binding signal (z-score)", "setting": "[33]", "result": -0.185}, {"measurement": "glycan array binding signal (z-score)", "setting": "[34]", "result": -0.185}]}]}
